In all, about 310,000 compounds went through this assay and about 14,000 (4.5%) showed an effect of 50% or more. Effects have a minus sign here. The list shows a part of the results.
Molecular target: human ether-à-go-go-related gene (hERG) potassium channel (human, UniProt Q12809)
Assay: primary screen, population patch clamp on CHO cells stably expressing hERG
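Note: peak tail current of the secondary pulse compared with the same well before compound.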

human ether-à-go-go-related gene (hERG) potassium channel, sequence (Q12809 whole entry, looked up): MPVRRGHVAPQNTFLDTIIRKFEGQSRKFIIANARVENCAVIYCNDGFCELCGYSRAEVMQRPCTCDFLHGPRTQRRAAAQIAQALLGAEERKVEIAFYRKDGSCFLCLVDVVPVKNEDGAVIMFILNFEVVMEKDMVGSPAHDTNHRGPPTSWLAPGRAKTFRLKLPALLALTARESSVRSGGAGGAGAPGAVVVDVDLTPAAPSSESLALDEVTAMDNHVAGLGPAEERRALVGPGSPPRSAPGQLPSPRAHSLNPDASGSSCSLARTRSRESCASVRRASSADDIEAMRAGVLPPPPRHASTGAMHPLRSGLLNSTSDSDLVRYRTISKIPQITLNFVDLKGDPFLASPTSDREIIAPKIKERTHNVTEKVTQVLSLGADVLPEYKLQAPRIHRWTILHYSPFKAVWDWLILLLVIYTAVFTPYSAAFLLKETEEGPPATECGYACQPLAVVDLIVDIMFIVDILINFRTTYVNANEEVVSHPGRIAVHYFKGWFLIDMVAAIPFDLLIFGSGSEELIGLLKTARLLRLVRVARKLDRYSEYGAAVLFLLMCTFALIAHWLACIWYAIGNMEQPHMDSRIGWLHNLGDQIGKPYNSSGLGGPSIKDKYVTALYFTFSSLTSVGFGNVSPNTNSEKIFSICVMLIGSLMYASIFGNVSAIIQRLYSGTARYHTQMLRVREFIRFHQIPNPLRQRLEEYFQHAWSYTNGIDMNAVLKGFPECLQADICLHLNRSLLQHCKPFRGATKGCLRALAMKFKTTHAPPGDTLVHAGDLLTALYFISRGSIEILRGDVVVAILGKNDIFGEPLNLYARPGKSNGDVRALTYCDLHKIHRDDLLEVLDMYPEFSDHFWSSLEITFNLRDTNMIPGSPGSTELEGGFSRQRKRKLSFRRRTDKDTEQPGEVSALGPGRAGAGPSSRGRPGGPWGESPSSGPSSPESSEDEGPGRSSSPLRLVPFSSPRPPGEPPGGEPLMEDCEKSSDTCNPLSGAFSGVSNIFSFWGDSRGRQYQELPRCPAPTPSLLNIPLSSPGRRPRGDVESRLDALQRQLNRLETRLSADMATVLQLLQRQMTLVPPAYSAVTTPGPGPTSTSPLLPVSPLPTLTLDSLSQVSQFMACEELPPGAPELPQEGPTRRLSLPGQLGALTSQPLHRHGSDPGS

| SMILES | hERG current change (%, negative = inhibition) at 10uM |
| --- | --- |
| CC(=O)N1CCN(C(=O)c2ccc(OC3CCN(CCc4ccccc4)CC3)cc2)CC1 | 15.6% |
| Cc1c(C(=O)Nc2ccc3c(c2)OCO3)sc2ncn(CC(=O)N3CC(C)CC(C)C3)c(=O)c12 (stereo not drawn) | -6.16% |
| Cc1ccc2nc(Cl)c(CN(Cc3cccs3)C(=O)C3CC3)cc2c1 | 8.82% |
| CCOC(=O)N(NC(=O)C(O)(c1ccccc1)c1ccccc1)c1ccccc1 | 2.17% |
| Cc1ccc(O)c(CNc2cccc3cccnc23)c1 | 11.8% |
| CN(C)CCSc1nnc2[nH]c3ccccc3c2n1.Cl | -22.5% |
| CC1CCC2(CC1)NC(=O)N(CC(=O)Nc1ccc3[nH]c(=O)[nH]c3c1)C2=O (stereo not drawn) | 0.0265% |
| COc1ccc(C(=O)N/C(=C\c2ccccc2)C(=O)NCc2cccnc2)cc1 | -70.8% |
| CCOC(=O)CSc1nnc(CSc2nc(C)cc(C)n2)n1Cc1ccco1 | 8.53% |
| NC1=NC(=O)/C(=C/c2cn(CCC(=O)O)nc2-c2ccc(Cl)cc2)S1 | 23.8% |
| CC(=O)Nc1ccc(S(=O)(=O)Nc2ccc3c(c2)OCO3)cc1 | 17.2% |
| Cc1ccc(C(C)C)c(OCC(O)CN2CCOCC2)c1 (stereo not drawn) | -2.99% |
| COc1ccc(CCN=Cc2ccccc2O)cc1OC | -2.77% |
| Cc1ccccc1C(=O)NC(=S)Nc1ccc(S(=O)(=O)N2CCOCC2)cc1 | -40% |
| CC1OC(NCCc2ccccc2)C(O)C(O)C1O (stereo not drawn) | -0.396% |
| Cc1cc(C)c2nc(-c3ccccn3)cc(C(=O)Nn3cnnc3)c2c1 | 8.45% |
| COc1cc(C(CC(=O)Nc2ccccn2)N2Cc3ccccc3C2=O)cc(OC)c1OC (stereo not drawn) | -11.5% |
| COC(=O)C1=C(C)N(C)C(=O)NC1c1cc2c(cc1[N+](=O)[O-])OCO2 (stereo not drawn) | 15.4% |
| CCc1nnc(N/N=C/c2c(Cl)cccc2Cl)n1N | -4.44% |
| N/C(=N\OC(=O)/C=C/c1ccccc1)c1ccc(Cl)cc1 | 0.0352% |
| Cc1ccc(C)n1NC(=O)c1ccccc1Cl | -4.92% |
| CCCCCCC(O)(c1ccccc1)C(CN1CCOCC1)c1ccccc1.Cl (stereo not drawn) | 14.8% |
| Cc1ccc(-c2csc(N3CCN(S(=O)(=O)c4ccc5c(c4)NC(=O)CO5)CC3)n2)cc1 | 20.9% |
| CCOC(=O)c1c(-c2ccccc2)oc2ccc(OC(C)=O)cc12 | 15.3% |
